Reference: patent publication US20140178935A1 (AVEO PHARMACEUTICALS, published 2014)

Columns and labels:
[1] = molecular target: T1, recombinant human HGF (R&D Systems, Catalog No. 294-HGN-025) (human, UniProt P14210 32-728); assay: SPR, captured antibody, HGF injected, 25 C
T1 construct: Mature HGF is a disulfide-linked heterodimer of alpha and beta chain cut from one precursor; also called rhHGF (R&D Systems); rhHGF
Description: (§1) Mouse anti-human immunoglobulins (Jackson Labs, Catalog No. 209-005) or rabbit anti-mouse immunoglobulins (BIAcore, Catalog No. BR-1005-14) were immobilized on carboxymethylated dextran CM4 sensor chips (BIAcore, Catalog No. BR-1006-68) by amine coupling (BIAcore, Catalog No. BR-1000-50) using a standard coupling protocol according to manufacturer's instructions. […] The analyses were performed at 25° C. and 37° C. using PBS (GIBCO, Catalog No. 14040-133) containing 0.05% surfactant P20 (BIAcore, Catalog No. BR-1000-54), and 2 mg/mL BSA (EMD, Catalog No. 2930) as running buffer.
(§2) The antibodies were captured in an individual flow cell at a flow rate of […]. Injection time was variable for each antibody to yield approximately 20 RU of antibody captured for each cycle. […] The dissociation phase was monitored for 15 or 90 minutes, depending on concentration. The surface of mouse anti-human immunoglobulins sensor chips was then regenerated with 10 mM Glycine-HCl, pH 2.2 (BIAcore, Catalog No. BR-1003-54) injected for 3 minutes at a flow rate of 60 μL/min before another cycle was initiated. The surface of rabbit anti-mouse immunoglobulins sensor chips was regenerated with 10 mM Glycine-HCl, pH 1.7 (BIAcore, Catalog No. BR-1003-54) injected for 3 minutes at a flow rate of 60 μL/min before another cycle was initiated.
(§3) Kinetic parameters were determined using the kinetic function of the BIAevaluation software with reference subtraction.

[2] = molecular target: T1, recombinant human HGF (R&D Systems, …); assay: SPR, captured antibody, HGF injected, 25 C; remark: listed apart in the source
Description: Mouse anti-human immunoglobulins (Jackson Labs, Catalog No. 209-005) were immobilized on carboxymethylated dextran CM4 sensor chips (BIAcore, Catalog No. BR-1006-68) by amine coupling (BIAcore, Catalog No. BR-1000-50) using a standard coupling protocol according to manufacturer's instructions. The analyses were performed at 25° C. using PBS (GIBCO, Catalog No. 14040-133) containing 0.05% surfactant P20 (BIAcore, Catalog No. BR-1000-54), and 2 mg/mL BSA (EMD, Catalog No. 2930).
The antibodies were captured in an individual flow cell at a flow rate of 10 μL/min. Injection time was variable for each antibody to yield approximately 20 RU of antibody captured for each cycle. […] The dissociation phase was monitored for 15 or 90 minutes, depending on concentration. The surface then was regenerated with 10 mM Glycine-HCl, pH 2.2 (BIAcore, Catalog No. BR-1003-54) injected for 3 minutes at a flow rate of 60 μL/min before another cycle was initiated.
Kinetic parameters were determined using the kinetic function of the BIAevalutation™ software with reference subtraction.

[3] = molecular target: T1, recombinant human HGF (R&D Systems, …); assay: cell-based or functional assay
[4] = molecular target: T2, recombinant mhm chimeric HGF protein containing human W507-L585 HGF sequence disposed within mouse HGF … (mouse-human-mouse chimera, UniProt Q08048 56-728); assay: SPR, antibody immobilized, HGF protein injected, 25 C
T2 construct: CHO supernatant; also called mhm chimera (W507-L585); MHM chimera (507-585)
T2 chain: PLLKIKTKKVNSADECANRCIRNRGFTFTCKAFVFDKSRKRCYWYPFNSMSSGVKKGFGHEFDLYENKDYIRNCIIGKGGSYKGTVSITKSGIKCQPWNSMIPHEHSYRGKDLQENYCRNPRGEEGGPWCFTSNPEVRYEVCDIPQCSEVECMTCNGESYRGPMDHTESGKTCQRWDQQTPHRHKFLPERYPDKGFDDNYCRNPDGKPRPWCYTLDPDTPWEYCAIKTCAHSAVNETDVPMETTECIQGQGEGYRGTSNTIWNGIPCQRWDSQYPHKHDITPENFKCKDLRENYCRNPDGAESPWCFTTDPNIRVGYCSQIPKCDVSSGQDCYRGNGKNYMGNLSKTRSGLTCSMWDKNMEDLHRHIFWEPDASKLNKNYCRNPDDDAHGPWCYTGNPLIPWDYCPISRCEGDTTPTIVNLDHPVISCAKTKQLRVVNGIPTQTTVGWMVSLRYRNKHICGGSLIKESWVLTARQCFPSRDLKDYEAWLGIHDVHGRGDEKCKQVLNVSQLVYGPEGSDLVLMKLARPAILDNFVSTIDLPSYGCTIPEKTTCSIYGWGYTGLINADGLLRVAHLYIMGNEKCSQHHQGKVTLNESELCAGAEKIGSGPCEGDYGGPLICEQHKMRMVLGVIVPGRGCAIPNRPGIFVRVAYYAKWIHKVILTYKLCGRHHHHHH
Description: (§4) Analyses were performed at 25° C. using PBS (GIBCO, Catalog No. 14040-133) containing 0.05% surfactant P20 (BIAcore, Catalog No. R-1000-54), 2 mg/mL BSA (EMD, Catalog No. 2930) and 10 mg/mL CM-Dextran Sodium salt (Fluka, Catalog No. 86524) as running buffer. […] The resulting binding was determined as resonance units (RU) over baseline 30 seconds after the end of injection. […] Non-specific binding was monitored by comparing binding to a control surface.

[5] = molecular target: T3, recombinant mouse HGF (R&D Systems) (mouse, UniProt Q08048 33-728); assay: as above
T3 construct: Bought protein, construct not described; also called rmHGF (R&D Systems); murine HGF
Description: as §4

[6] = molecular target: T4, recombinant mhm chimeric HGF protein containing the region I499-R556 of hHGF disposed between murine sequences (mouse-human-mouse chimera, UniProt Q08048 56-728); assay: as above
T4 construct: also called mhm chimera (I499-R556)
T4 chain: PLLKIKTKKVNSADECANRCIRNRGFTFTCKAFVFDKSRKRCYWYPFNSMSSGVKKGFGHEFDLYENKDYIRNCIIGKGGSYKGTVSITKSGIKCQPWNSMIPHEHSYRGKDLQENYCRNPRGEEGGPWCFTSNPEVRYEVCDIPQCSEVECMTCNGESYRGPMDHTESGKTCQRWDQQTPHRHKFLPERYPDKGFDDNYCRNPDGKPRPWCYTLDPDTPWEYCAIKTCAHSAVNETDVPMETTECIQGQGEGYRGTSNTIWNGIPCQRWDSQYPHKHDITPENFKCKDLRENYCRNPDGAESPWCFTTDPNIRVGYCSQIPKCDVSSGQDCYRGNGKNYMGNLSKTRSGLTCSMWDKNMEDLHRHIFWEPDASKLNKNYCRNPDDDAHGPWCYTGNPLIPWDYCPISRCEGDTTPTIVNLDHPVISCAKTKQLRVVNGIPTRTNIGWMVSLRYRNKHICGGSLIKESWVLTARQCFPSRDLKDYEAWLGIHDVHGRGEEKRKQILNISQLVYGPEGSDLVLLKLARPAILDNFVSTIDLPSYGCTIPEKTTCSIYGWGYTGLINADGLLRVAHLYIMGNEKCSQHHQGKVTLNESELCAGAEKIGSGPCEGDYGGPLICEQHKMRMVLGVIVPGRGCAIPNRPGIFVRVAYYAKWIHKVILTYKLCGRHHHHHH
Description: as §4

[7] = molecular target: T1, recombinant human HGF (R&D Systems, …); assay: SPR, captured antibody, HGF injected, 37 C
Description: as §1, §2, §3

[8] = molecular target: T1, recombinant human HGF (R&D Systems, …); assay: cell-based or functional assay; remark: listed apart in the source
[9] = molecular target: T1, recombinant human HGF (R&D Systems, …); assay: competition ELISA (DELFIA): antibody inhibits biotinylated c-Met binding to plate-coated HGF
Description: The plates then were blocked with 200 μL of 5% non-fat dry milk in PBS for 1 hour at room temperature. […] 100 μL of sample per well was transferred to the assay plate and incubated for 2 hours at room temperature. The resulting plates were washed three times with PBS-0.1% Tween 20, and incubated for 1 hour at room temperature with Eu-labeled Streptavidin (Wallac, Catalog No. 1244-360) diluted 1:1000 in DELFIA assay buffer (Wallac, Catalog No. 4002-0010). The resulting plates were washed 3 times with DELFIA wash solution (Wallac, Catalog No. 4010-0010) and incubated with 100 μL/well DELFIA enhancement solution (Wallac #4001-0010) for 15 minutes at room temperature with agitation. The plates were read on Victor³V instrument (Perkin Elmer) using the Europium method. The IC₅₀ values were calculated using Prism.

T1 sequence (P14210 32-728 limits assumed): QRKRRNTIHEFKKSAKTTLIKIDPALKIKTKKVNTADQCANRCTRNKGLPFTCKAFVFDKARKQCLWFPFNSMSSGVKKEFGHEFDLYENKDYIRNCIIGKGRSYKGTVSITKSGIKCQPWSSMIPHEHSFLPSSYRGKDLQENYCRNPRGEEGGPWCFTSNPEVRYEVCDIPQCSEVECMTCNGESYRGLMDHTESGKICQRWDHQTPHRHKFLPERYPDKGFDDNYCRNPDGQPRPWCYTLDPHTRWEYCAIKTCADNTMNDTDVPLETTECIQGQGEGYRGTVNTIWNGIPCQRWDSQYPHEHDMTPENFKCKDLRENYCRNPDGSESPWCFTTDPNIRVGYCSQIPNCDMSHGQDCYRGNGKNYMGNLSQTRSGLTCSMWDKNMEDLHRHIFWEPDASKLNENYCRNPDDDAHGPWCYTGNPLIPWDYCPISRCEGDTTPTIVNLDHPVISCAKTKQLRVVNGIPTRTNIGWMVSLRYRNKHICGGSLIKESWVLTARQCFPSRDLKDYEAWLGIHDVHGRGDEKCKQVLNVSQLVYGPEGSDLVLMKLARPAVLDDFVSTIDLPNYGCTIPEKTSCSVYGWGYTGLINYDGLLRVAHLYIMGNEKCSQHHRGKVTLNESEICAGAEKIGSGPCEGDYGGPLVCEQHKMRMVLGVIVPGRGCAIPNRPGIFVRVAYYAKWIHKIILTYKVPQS

B1: sh2B8-12 (G1m(17,1)) = hu2B8 Hv5-51.1 + IgG1 constant region (G1m(17,1) allotype) plus hu2B8 Kv3-15.1 + Kappa constant region (Km(3) allotype, allele 2) (antibody)
heavy: EVQLVQSGAEVKKPGESLKISCKGSGYSFTTYWMHWVRQMPGKGLEWMGEINPTNGHTNYNPSFQGQVTISADKSISTAYLQWSSLKASDTAMYYCARNYVGSIFDYWGQGTLVTVSS[human IgG1 constant region cut from this listing]
light: EIVMTQSPATLSVSPGERATLSCKASENVVSYVSWYQQKPGQAPRLLIYGASNRNTGIPARFSGSGSGTEFTLTISSLQSEDFAVYYCGQSYNYPYTFGQGTKLEIKRTVAAPSVFIFPPSDEQLKSGTASVVCLLNNFYPREAKVQWKVDNALQSGNSQESVTEQDSKDSTYSLSSTLTLSKADYEKHKVYACEVTHQGLSSPVTKSFNRGEC
Kd [1]: 0.012 nM
koff [1]: 2.3e-05 s⁻¹
kon [1]: 1.9e+06 M⁻¹ s⁻¹
Kd [2]: 0.012 nM
koff [2]: 2.3e-05 s⁻¹
kon [2]: 1.9e+06 M⁻¹ s⁻¹

B2: sh2B8-12 (G1m(3)) = hu2B8 Hv5-51.1 + IgG1 constant region (G1m(3) allotype, allele 2) plus hu2B8 Kv3-15.1 + Kappa constant region (Km(3) allotype, allele 2) (antibody)
heavy: EVQLVQSGAEVKKPGESLKISCKGSGYSFTTYWMHWVRQMPGKGLEWMGEINPTNGHTNYNPSFQGQVTISADKSISTAYLQWSSLKASDTAMYYCARNYVGSIFDYWGQGTLVTVSSASTKGPSVFPLAPSSKSTSGGTAALGCLVKDYFPEPVTVSWNSGALTSGVHTFPAVLQSSGLYSLSSVVTVPSSSLGTQTYICNVNHKPSNTKVDKRV[human IgG1 Fc cut from this listing]
light: EIVMTQSPATLSVSPGERATLSCKASENVVSYVSWYQQKPGQAPRLLIYGASNRNTGIPARFSGSGSGTEFTLTISSLQSEDFAVYYCGQSYNYPYTFGQGTKLEIKRTVAAPSVFIFPPSDEQLKSGTASVVCLLNNFYPREAKVQWKVDNALQSGNSQESVTEQDSKDSTYSLSSTLTLSKADYEKHKVYACEVTHQGLSSPVTKSFNRGEC
notes: Superhumanized 2B8 variant, human IgG1 kappa, made in 293T cells
EC50, inhibition of HGF-stimulated c-Met phosphorylation in PC-3 cells, Average of Two Trials [3]: 0.81 nM
binding result [4]: binds
binding result [5]: no binding
binding result [6]: binds
Kd [7]: 4.8 pM
koff [7]: 1.1e-05 s⁻¹
kon [7]: 2.4e+06 M⁻¹ s⁻¹
IC50, neutralization of HGF stimulated BrdU incorporation in 4 MBr-5 cells [8]: 0.81 nM
IC50 [9]: 6.8 nM
